Assay results reported in article PMC12136788.
This is one part of the list.

T1: UNK ZnF1-3 (human, UniProt Q9C0B0 31-174)
T1 sequence: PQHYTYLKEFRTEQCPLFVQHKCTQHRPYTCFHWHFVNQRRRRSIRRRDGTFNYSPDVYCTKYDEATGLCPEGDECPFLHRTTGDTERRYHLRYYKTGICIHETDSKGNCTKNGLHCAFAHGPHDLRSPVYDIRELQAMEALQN

B1: chr12:70442348:70442349:-_ENSMUSG00000020982_ENSMUST00000021368|mus_mus|FALSE|FALSE (ssRNA)
RNA: GGGAGUUCUACAGUCCGACGAUCAACCGGGUCUCCUUGAGCUUGAGCUUCUUUCACAAUCACUCCGAUUUCUGUCCAGUCUAUCUGGUUGGCCAACGCACUUCGGACUACCUGAAUGGCUCUGUCCACUAUCUGCAGGUUCAUCAACAGAGGAUUGAGCAUCA
B2: chr7:75932113:75932114:+_ENSG00000106211_ENST00000248553|hu_hu|hu_hu_hu_mus_False|38_98 (ssRNA)
RNA: GGGAGUUCUACAGUCCGACGAUCCUGCGACCACUCAUCCGGCAGCCGGGGCACCCCGAAAGCUUGAUCGAAGAGGCGGCUGUGUGCAGGGUACCAGCGGAAGGGGUGUUCCCAGCUCGGGCUCCGCAGCAGCGAGAAGGGCACCAACAGAGGAUUGAGCAUCA
B3: chr1:17371331:17371332:-_ENSG00000117118_ENST00000375499|hu_mus|FALSE|FALSE (ssRNA)
RNA: GGGAGUUCUACAGUCCGACGAUCCGUCUGCAUUCGAGGUUUAUCUCCAGUCUUGUCUGGGUCCCAUCGGUAAAUGGCAAAUUUUUUGAUUCUGGGAGCUGCAGCAGCAGCUGUCUGUGCCCCUCGACAGGCCUGAAACUGCAGCAACAGAGGAUUGAGCAUCA
B4: 226340194_226340314_1211_3pUTR_ENSG00000182827_ENST00000366812|human|control|control (ssRNA)
RNA: GGGAGUUCUACAGUCCGACGAUCGAACAGUGACCACUUCUCCUCGGCCCACUGUAAUCACGGAAUCUGCAUCCUGCUGAAUCUUCUCUUUGAAGUCUUUGAUCUGAGGUCGUGUCCACAUGGAUGGAGCUGCUAUUACUGGAACAACAGAGGAUUGAGCAUCA
B5: 106961284_106961404_693_CDS_ENSMUSG00000035770_ENSMUST00000041769|mouse|control|control (ssRNA)
RNA: GGGAGUUCUACAGUCCGACGAUCCUCCUCCGGUGGAAUCUUCAUCUUGUCAAUGUGCUCCCGUAAAACACUAGCCCACUUCUGCAGAGACUCCAUUAUCGUCCAAGGUCGAGACAUGUCGGCAACAAAAAUGACCAGGGUCUCCAACAGAGGAUUGAGCAUCA
B6: chr6:124691279:124691280:-_ENSMUSG00000072772_ENSMUST00000004389|mus_mus|FALSE|FALSE (ssRNA)
RNA: GGGAGUUCUACAGUCCGACGAUCCAGUGAAAUUGGGAGGGGUUUUCCGACCGAAGUCAGAAAACCUGCUAGACAAAUUCUAAAAGAGCUGUAACACUUGCGGAAGUGCGUCUGUAGCGAGCCAGGGAAGGACAUCAACUCCACCAACAGAGGAUUGAGCAUCA
B7: chr18:32917252:32917253:-_ENSG00000172466_ENST00000399061|hu_hu|FALSE|FALSE (ssRNA)
RNA: GGGAGUUCUACAGUCCGACGAUCUUCUUAAACUUUCACAACAUUCAGAAGUUUUUCUGCAUUGUGUCUUCUCUGAUGUCUAAAAAGAUUUGAGCUUUGACUAUACGAUUUCCCACACUGAACGCAUUCAUAAGGUUUCUCCCCCAACAGAGGAUUGAGCAUCA
B8: chr17:40995140:40995141:+_ENSG00000131467_ENST00000293362|hu_hu|FALSE|FALSE (ssRNA)
RNA: GGGAGUUCUACAGUCCGACGAUCCAUUACGAUCCAUGGGUGAUAGGGUGAGGAGGAGGGGCAGUGGAACAGUCCAACAAACGAAACGGGAAACUGAGAAACACAUGGAGGGAAGGGGGAAGGGUUUUAGCUGGAAGGGAUCUGCAACAGAGGAUUGAGCAUCA
B9: chr4:155540527:155540528:-_ENSMUSG00000041936_ENSMUST00000154494|mus_mus|FALSE|FALSE (ssRNA)
RNA: GGGAGUUCUACAGUCCGACGAUCGCCCGGACGGAAAGGAGGCCAGGCCAGCAGUCCUUCUGGCCAACGUGCAGUCAAGAAAAUCAUAUAAAAAUGCAACAAGUUUACAAAAAUAGAAAAUAAUUACAGGAGGGAAGGUGGCAGCAACAGAGGAUUGAGCAUCA
B10: chr3:9412954:9412955:+_ENSG00000134077_ENST00000452837|hu_mus|hu_hu_hu_mus_False|8_38 (ssRNA)
RNA: GGGAGUUCUACAGUCCGACGAUCGGUUGAUAUCUCUUCUUUGAUGGCUGGAUUUUCAUAAUAGUCCAAGAUAUGUGAAUCUGAAGUGCUGCUGGCAAACUCUUUUUUACCAUCUUUCUCAUCUGCUUUGACUUCUUGUCCACACAACAGAGGAUUGAGCAUCA
B11: chr6:124414581:124414582:-_ENSMUSG00000008153_ENSMUST00000008297|mus_mus|motif|central (ssRNA)
RNA: GGGAGUUCUACAGUCCGACGAUCGCGGUGCUAAGCACGCCAGGCCAGGCGUUCCUAUCCCCUGGGAGCCUCAAGCCUGCGGAUGCCACCUUGGGGGAGAAAUGCAGAGACUACGAGGGAAGGGCAGGGGGACAAGAUCGGAAACAACAGAGGAUUGAGCAUCA
B12: chr7:86439405:86439406:+_ENSMUSG00000039202_ENSMUST00000037315|mus_mus|motif|central (ssRNA)
RNA: GGGAGUUCUACAGUCCGACGAUCUUCCUUGAAGGGGUGUCCAGGUGGGCCAAUCAGAUCUGAUCUUAUAUUCAAAUUAACCGGAAAGCUUCUCUCAUUGACUCCAGCAGUCCAACCCGCCCGGAGUCCGGUUCCCGCAGCUCCCAACAGAGGAUUGAGCAUCA
B13: 118867020_118872158_2107_CDS_ENSG00000133835_ENST00000256216|human|control|control (ssRNA)
RNA: GGGAGUUCUACAGUCCGACGAUCGCCUUGGUACACUUUUCCAGAACCACUUUUCAGGUCAAUAGUCCACUUAGCCCCAAUAUUUCCGCCUUUGGUUAUAUGCCACUCAAAUACAGCAUUUACUUUCUUCACCACCUCAGGCCCCAACAGAGGAUUGAGCAUCA
B14: chr1:244855233:244855234:+_ENSG00000121644_ENST00000302550|hu_mus|hu_hu_hu_mus_True|48_98 (ssRNA)
RNA: GGGAGUUCUACAGUCCGACGAUCCAUCAGAUGGUAGGCAUUGCCUUUAUACUCUUUCCCCAGUUCUUCUACAAUUUUCUCUAUAUCAUCUUCUAGGAAGUCCGUACUUCCUAGAACAACAGCUUCUUUAAAUUUAAAUGUUUCCAACAGAGGAUUGAGCAUCA
B15: chr11:35642274:35642275:-_ENSMUSG00000018848_ENSMUST00000018992|mus_hu|FALSE|FALSE (ssRNA)
RNA: GGGAGUUCUACAGUCCGACGAUCCUGCUGACUUGGUGUCACUAGCAGAGGAGGAUUUUCCAAAUCUGGAUAUGCAGCCUUAAUUGCAUGACCAAAGACCUCUUGUAGGCGGCUAAUAAUGUUAAUCAUAUUUUUAGUUGGUUUCAACAGAGGAUUGAGCAUCA
B16: chr2:237995794:237995795:+_ENSG00000198612_ENST00000392008|hu_hu|FALSE|FALSE (ssRNA)
RNA: GGGAGUUCUACAGUCCGACGAUCGUAUUCUUUUCCAAAGAUAUCUUGCAUUAUUCAUGUCAUUAUGGAGCAAAUAUAAAGCUAGAAGCUGACCAUACACUGGGGGUGUAGCAAUUCCUCCAGGGGCUAUUAUAAGAAACAAAUCAACAGAGGAUUGAGCAUCA
B17: chr2:44436386:44436387:+_ENSG00000138032_ENST00000378551|hu_mus|FALSE|FALSE (ssRNA)
RNA: GGGAGUUCUACAGUCCGACGAUCCUCUGAAUCUCUCUUCACGGCUUCCUCUGAGACCUUGGGGGCAUUUGAAAAGCAAACUAAUACAACACUCAUGUUAUCUCGACUUCCCUUAUGUAAACAAGUGUCCACUACCCAAUUGCACAACAGAGGAUUGAGCAUCA
B18: chr16:49913422:49913423:+_ENSMUSG00000055447_ENSMUST00000084838|mus_hu|FALSE|FALSE (ssRNA)
RNA: GGGAGUUCUACAGUCCGACGAUCAAAAGGACAAAUGGUGUCACUGUGAGAACACACAAUAAAUAAAACUGAAUGGAAGAGUCAACAGCAGAAACUGGGAUCAGGGAGUAAAAAGCAUAUUAUGGGACAAAACAGAUACAUGAUCAACAGAGGAUUGAGCAUCA
B19: chr19:16212804:16212805:+_ENSG00000167460_ENST00000300933|hu_mus|hu_hu_hu_mus_False|78_88 (ssRNA)
RNA: GGGAGUUCUACAGUCCGACGAUCAACAAUUCUGGAGUGAAGGAAAGCAUCAAGGAUCAAUUAAUUAAAAGCUCAGUCAGAAGGCACAUGGGCAACAAUGAUCACCCCAGCAUUCUCGCUUGGAAUGCUUAAAGACAAUCUGUUCAACAGAGGAUUGAGCAUCA
B20: 153512049_153512169_4045_3pUTR_ENSG00000196504_ENST00000410080|human|control|control (ssRNA)
RNA: GGGAGUUCUACAGUCCGACGAUCUUUUUUUUUUAGACAAGGAUAUUGCAACUAUCACUUAAAGUCUGGUGGCACAUUCUUUAGUAGGUCCUUAAGGCAAUAUAUUUAAAUUAAUUUACAAUUUGAUUUGAUGUUAAAGUUUUUCAACAGAGGAUUGAGCAUCA
B21: chr9:100883651:100883652:-_ENSG00000106789_ENST00000375077|hu_hu|motif|central (ssRNA)
RNA: GGGAGUUCUACAGUCCGACGAUCGGGUAUGGAAUAAGGAGAUGAGAGCAUGCUCUGCCAACUGGCUGGGACCUGAAUGUGCGGGGCAAGUUCCACUACAUCAGCUCAAGAACAUAAACAAAAAUGUAAUUUAAAAAACAGAUGCAACAGAGGAUUGAGCAUCA
B22: chr2:32641123:32641124:+_ENSG00000115760_ENST00000421745|hu_hu|FALSE|FALSE (ssRNA)
RNA: GGGAGUUCUACAGUCCGACGAUCAGUGCCCUCCUUUUUGGGAGGCUCCACUUUGGCCAAAAUUUCAAAGUUUGAAAGAUCUAGUAUUUUUACAUAUCCUCCCUGAGUGGUUAUUACCAGGUGUCCAAGAGUAGAAAUGUCAGACAACAGAGGAUUGAGCAUCA

What follows are binders tested against T1, UNK ZnF1-3 (assay: nsRBNS (natural sequence RNA bind-n-seq); RBNS binding buffer (assumed for nsRBNS): 25 mM Tris pH 7.5, 150 mM KCl, 3 mM MgCl2, 0.01% Triton X-100, 500 ug/ml BSA, 20 U/ml SUPERase-In, 4 C; UNK is unkempt and MSI1 is Musashi-1; names of the RNAs are library labels; protein concentration not given here; high values mean tight binding).

Binder	binding signal
B1	0.838 enrichment R
B2	1.58 enrichment R
B3	0.958 enrichment R
B4	0.952 enrichment R
B5	0.945 enrichment R
B6	0.864 enrichment R
B7	0.958 enrichment R
B8	2.12 enrichment R
B9	3.25 enrichment R
B10	0.239 enrichment R
B11	1.23 enrichment R
B12	0.865 enrichment R
B13	0.938 enrichment R
B14	1.12 enrichment R
B15	0.822 enrichment R
B16	1.09 enrichment R
B17	0.993 enrichment R
B18	2.63 enrichment R
B19	1.54 enrichment R
B20	2.98 enrichment R
B21	3.22 enrichment R
B22	0.986 enrichment R
